# Assay results from the supplement of paper PMC4604168 (melanoma cell lines).
# The other results are listed elsewhere or left out. Single values are uncertain, as repeats are few or missing.
# Legend:
# Test in all cases: cell count relative to DMSO control; melanoma cells; higher = more viable cells
# Details in all cases: library dose: low library concentration; 72 h
# MZ2-MEL = system: MZ2-MEL
# MeWo = system: MeWo
# RPMI7951 = system: RPMI7951
# RVH-421 = system: RVH-421
# SkMel28 = system: SkMel28
# SkMel30 = system: SkMel30
# SkMel5 = system: SkMel5
# UACC257 = system: UACC257
# UACC62 = system: UACC62
# 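Further: cell number obtained by counting DAPI-stained nuclei in high-throughput microscope images with image analysis software, screen run in 1,536-well plates.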
SMILES,cell count (MZ2-MEL),cell count (MeWo),cell count (RPMI7951),cell count (RVH-421),cell count (SkMel28),cell count (SkMel30),cell count (SkMel5),cell count (UACC257),cell count (UACC62)
"CO[C@H]1C[C@@H]2CC[C@@H](C)[C@@](O)(O2)C(=O)C(=O)N2CCCC[C@H]2C(=O)O[C@H]([C@H](C)C[C@@H]2CC[C@@H](OCCO)[C@H](OC)C2)CC(=O)[C@H](C)/C=C(\C)[C@@H](O)[C@@H](OC)C(=O)[C@H](C)C[C@H](C)/C=C/C=C/C=C/1C [everolimus] + O=C(Nc1ccccc1)c1cc([N+](=O)[O-])ccc1Cl [GW9662] (first compound 0.02 µM, partner dose 2 µM)",73.9%,58.6%,81.6%,78.3%,51.2%,53.1%,108%,73%,61.8%
"CO[C@H]1C[C@@H]2CC[C@@H](C)[C@@](O)(O2)C(=O)C(=O)N2CCCC[C@H]2C(=O)O[C@H]([C@H](C)C[C@@H]2CC[C@@H](OCCO)[C@H](OC)C2)CC(=O)[C@H](C)/C=C(\C)[C@@H](O)[C@@H](OC)C(=O)[C@H](C)C[C@H](C)/C=C/C=C/C=C/1C [everolimus] + O=c1cc(-c2cccc3c2Sc2ccccc2S3)oc(N2CCOCC2)c1 [KU55933] (first compound 0.02 µM, partner dose 1 µM)",84%,72.6%,63%,85.7%,65.2%,73.7%,101%,81.3%,75.7%
"CO[C@H]1C[C@@H]2CC[C@@H](C)[C@@](O)(O2)C(=O)C(=O)N2CCCC[C@H]2C(=O)O[C@H]([C@H](C)C[C@@H]2CC[C@@H](OCCO)[C@H](OC)C2)CC(=O)[C@H](C)/C=C(\C)[C@@H](O)[C@@H](OC)C(=O)[C@H](C)C[C@H](C)/C=C/C=C/C=C/1C [everolimus] + Oc1nc(-c2ccc(C(F)(F)F)cc2)nc2c1CSCC2 [XAV939] (first compound 0.02 µM, partner dose 2 µM)",74.7%,66.5%,78.7%,78.7%,50.5%,89.3%,73.3%,65.2%,57.8%
"CO[C@H]1C[C@@H]2CC[C@@H](C)[C@@](O)(O2)C(=O)C(=O)N2CCCC[C@H]2C(=O)O[C@H]([C@H](C)C[C@@H]2CC[C@@H](OCCO)[C@H](OC)C2)CC(=O)[C@H](C)/C=C(\C)[C@@H](O)[C@@H](OC)C(=O)[C@H](C)C[C@H](C)/C=C/C=C/C=C/1C [everolimus] + C[C@@H]1CCN(C(=O)CC#N)C[C@@H]1N(C)c1ncnc2[nH]ccc12 [CP690550] (first compound 0.02 µM, partner dose 1 µM)",75.5%,87%,87.4%,78.3%,66.1%,54.7%,112%,51.4%,73%
"CO[C@H]1C[C@@H]2CC[C@@H](C)[C@@](O)(O2)C(=O)C(=O)N2CCCC[C@H]2C(=O)O[C@H]([C@H](C)C[C@@H]2CC[C@@H](OCCO)[C@H](OC)C2)CC(=O)[C@H](C)/C=C(\C)[C@@H](O)[C@@H](OC)C(=O)[C@H](C)C[C@H](C)/C=C/C=C/C=C/1C [everolimus] + O=C(O)c1ccc(-c2c[nH]c3ncc(-c4ccccc4)cc23)cc1C1CCCC1 [GSK650394] (first compound 0.02 µM, partner dose 0.16 µM)",70.4%,71.8%,84.6%,93.4%,49.6%,75.2%,109%,46.6%,72.1%
"CO[C@H]1C[C@@H]2CC[C@@H](C)[C@@](O)(O2)C(=O)C(=O)N2CCCC[C@H]2C(=O)O[C@H]([C@H](C)C[C@@H]2CC[C@@H](OCCO)[C@H](OC)C2)CC(=O)[C@H](C)/C=C(\C)[C@@H](O)[C@@H](OC)C(=O)[C@H](C)C[C@H](C)/C=C/C=C/C=C/1C [everolimus] + C=C(c1ccc(C(=O)O)cc1)c1cc2c(cc1C)C(C)(C)CCC2(C)C [Bexarotene] (first compound 0.02 µM, partner dose 2 µM)",81.4%,64.8%,77.1%,76.5%,37%,62.4%,–,–,58.7%
"CO[C@H]1C[C@@H]2CC[C@@H](C)[C@@](O)(O2)C(=O)C(=O)N2CCCC[C@H]2C(=O)O[C@H]([C@H](C)C[C@@H]2CC[C@@H](OCCO)[C@H](OC)C2)CC(=O)[C@H](C)/C=C(\C)[C@@H](O)[C@@H](OC)C(=O)[C@H](C)C[C@H](C)/C=C/C=C/C=C/1C [everolimus] + COc1ccc(-c2ccc3c(N4CCOCC4)nc(N4C[C@@H](C)O[C@@H](C)C4)nc3n2)cc1CO [KU0063794] (first compound 0.02 µM, partner dose 0.02 µM)",76.5%,68.2%,59.1%,83.9%,53.7%,67.9%,96.6%,60.2%,61.3%
"CO[C@H]1C[C@@H]2CC[C@@H](C)[C@@](O)(O2)C(=O)C(=O)N2CCCC[C@H]2C(=O)O[C@H]([C@H](C)C[C@@H]2CC[C@@H](OCCO)[C@H](OC)C2)CC(=O)[C@H](C)/C=C(\C)[C@@H](O)[C@@H](OC)C(=O)[C@H](C)C[C@H](C)/C=C/C=C/C=C/1C [everolimus] + CCN(CC)CCCCNc1ncc2cc(-c3cc(OC)cc(OC)c3)c(NC(=O)NC(C)(C)C)nc2n1 [PD173074] (first compound 0.02 µM, partner dose 0.1 µM)",74.8%,76.7%,94%,93.4%,58.3%,79.2%,129%,66.8%,57.9%
"CO[C@H]1C[C@@H]2CC[C@@H](C)[C@@](O)(O2)C(=O)C(=O)N2CCCC[C@H]2C(=O)O[C@H]([C@H](C)C[C@@H]2CC[C@@H](OCCO)[C@H](OC)C2)CC(=O)[C@H](C)/C=C(\C)[C@@H](O)[C@@H](OC)C(=O)[C@H](C)C[C@H](C)/C=C/C=C/C=C/1C [everolimus] + c1cc(-c2cnn3cc(-c4ccc(OCCN5CCCCC5)cc4)cnc23)ccn1 [Dorsomorphin] (first compound 0.02 µM, partner dose 0.4 µM)",92.6%,79.5%,81.3%,93.5%,61.2%,56%,85.6%,74.6%,76.8%
"CO[C@H]1C[C@@H]2CC[C@@H](C)[C@@](O)(O2)C(=O)C(=O)N2CCCC[C@H]2C(=O)O[C@H]([C@H](C)C[C@@H]2CC[C@@H](OCCO)[C@H](OC)C2)CC(=O)[C@H](C)/C=C(\C)[C@@H](O)[C@@H](OC)C(=O)[C@H](C)C[C@H](C)/C=C/C=C/C=C/1C [everolimus] + Cc1cc([N+](=O)[O-])ccc1NS(=O)(=O)c1cc(Cl)ccc1Cl [FH535] (first compound 0.02 µM, partner dose 1 µM)",68.9%,74.3%,87.2%,65.1%,47.3%,68.4%,95.7%,75%,63.8%
"CO[C@H]1C[C@@H]2CC[C@@H](C)[C@@](O)(O2)C(=O)C(=O)N2CCCC[C@H]2C(=O)O[C@H]([C@H](C)C[C@@H]2CC[C@@H](OCCO)[C@H](OC)C2)CC(=O)[C@H](C)/C=C(\C)[C@@H](O)[C@@H](OC)C(=O)[C@H](C)C[C@H](C)/C=C/C=C/C=C/1C [everolimus] + NC(=O)Nc1cc(-c2cccc(F)c2)sc1C(=O)N[C@H]1CCCNC1 [AZD7762] (first compound 0.02 µM, partner dose 0.02 µM)",82.1%,79.4%,72.4%,115%,68.4%,71.7%,121%,83%,90.5%
"CO[C@H]1C[C@@H]2CC[C@@H](C)[C@@](O)(O2)C(=O)C(=O)N2CCCC[C@H]2C(=O)O[C@H]([C@H](C)C[C@@H]2CC[C@@H](OCCO)[C@H](OC)C2)CC(=O)[C@H](C)/C=C(\C)[C@@H](O)[C@@H](OC)C(=O)[C@H](C)C[C@H](C)/C=C/C=C/C=C/1C [everolimus] + O=S(=O)(c1ccccc1)N(CC(F)(F)F)c1ccc(C(O)(C(F)(F)F)C(F)(F)F)cc1 [T0901317] (first compound 0.02 µM, partner dose 1.4 µM)",73.1%,72.8%,87.9%,80.2%,51.4%,50.4%,85.9%,58.4%,61.1%
"CO[C@H]1C[C@@H]2CC[C@@H](C)[C@@](O)(O2)C(=O)C(=O)N2CCCC[C@H]2C(=O)O[C@H]([C@H](C)C[C@@H]2CC[C@@H](OCCO)[C@H](OC)C2)CC(=O)[C@H](C)/C=C(\C)[C@@H](O)[C@@H](OC)C(=O)[C@H](C)C[C@H](C)/C=C/C=C/C=C/1C [everolimus] + COc1ccc(COc2ccc(Cc3cnc(N)nc3N)cc2OC)cc1 [GW2580] (first compound 0.02 µM, partner dose 1 µM)",74%,77.5%,82.8%,80.1%,50.5%,65.8%,116%,91%,71.7%
"CC(=O)O[C@@]12CO[C@@H]1C[C@H](O)[C@@]1(C)C(=O)[C@H](O)C3=C(C)[C@@H](OC(=O)[C@H](O)[C@@H](NC(=O)OC(C)(C)C)c4ccccc4)C[C@@](O)([C@@H](OC(=O)c4ccccc4)[C@H]21)C3(C)C [Docetaxel] + CO[C@H]1C[C@@H]2CC[C@@H](C)[C@@](O)(O2)C(=O)C(=O)N2CCCC[C@H]2C(=O)O[C@H]([C@H](C)C[C@@H]2CC[C@@H](OCCO)[C@H](OC)C2)CC(=O)[C@H](C)/C=C(\C)[C@@H](O)[C@@H](OC)C(=O)[C@H](C)C[C@H](C)/C=C/C=C/C=C/1C [everolimus] (first compound 0.0001 µM, partner dose 0.02 µM)",39.7%,41.1%,41.6%,57.1%,21.3%,32.4%,–,–,27.3%
